Assays:
[1] = Test whether cholesterol independently causes inflammation in rabbit corneas (topical drops or intrastromal injection); type: in vivo; conditions: two rabbit corneas, topical drops of 1% cholesterol in 20% glycerol over 10 hours; examined for several days
Experimental: The applications were 30 minutes apart for the first hour, and the remaining applications were 1 hour apart. The corneas were examined periodically for several days. […] The possible effect of cholesterol injected into the corneal stroma was also examined. […] The corneas were examined every 2 hours for the first 8 hours, and then at 24, 30, and 48 hours post-injection.

[2] = test system: encapsulated S. pneumoniae; test: Rabbit S. pneumoniae keratitis, slit lamp examination (SLE) score; conditions: topical 1% cholesterol in 20% glycerol at 20 and 24 hr post-infection, 48 hours post-infection

CC(C)CCC[C@@H](C)[C@H]1CC[C@H]2[C@@H]3CC=C4C[C@@H](O)CC[C@]4(C)[C@H]3CC[C@]12C [cholesterol]
inflammation or adverse effect after topical drops [1]: No inflammation or adverse effect of any kind was observed | reduction in corneal damage compared to untreated corneas (SLE score) [2]: 35%

Source: patent publication US7906498B2, “Cholesterol as an antibiotic for Streptococcus pneumoniae” (priority 2005, dated 2011)
